This note sets out measurements from the supplement of paper PMC11417369.

The other results are listed elsewhere or left out.

The assay deals with PfHDP1 homeodomain (GST-tagged). Kind of assay: gcPBM binding intensity (ln(normalized median fluorescence intensity)); higher = stronger DNA binding. The essentials:
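Binding of GST-tagged P. falciparum DNA-binding domains, expressed in E. coli and used at about 25 μg on average, was carried out for 1 h in 1× PBS containing 1% milk, 0.2 mg/ml BSA, 0.5% salmon testes DNA and 0.03% Triton X-100. The target was an Agilent 4 × 180k array of primer-extended double-stranded 36-bp intergenic genomic probes plus negative controls, read with Alexa488 anti-GST antibody at 488 nm. Binding intensity is the highest Masliner-normalised natural-log median intensity across replicate spots of either probe orientation.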
Take “GCAAAATATTTAAAATAATATATGTGTATATTTTTA [GTGCAC_negctrl_site149]”: the “gcPBM binding intensity (ln)” value came out at 6.38.
Under “TTTATATTGTTTTATTGTACATATATATTTATACAT [XGTACX_site6821]” stands 6.79; under “AAAAAAAAAAAAAAACTTACGATTTTAAAAAGATGG [GTGCAC_negctrl_site291]”, 6.27; under “GAAATGTACAAATACGTACACACATATATATATATA [CACACA_site1541]”, 9.28.
On to “TTAATTAGAAATCATACACACATATATATATATATA [CACACA_site173]”, for which the “gcPBM binding intensity (ln)” value turned out to be 9.37.
On to “AAACATGTATTTTATTGTACACATTCATAAATCACA [XGTACX_site1420]”, for which the “gcPBM binding intensity (ln)” value worked out at 6.63.
Consider “TTATAATCTTATATATGTACATATATATATTATTAT [XGTACX_site7780]”, for which the “gcPBM binding intensity (ln)” value came out at 6.48.
As for “TACATGTATGTAATATGTTTTATTTTTTTCATCTCT [XGTACX_negctrl_site79]”, the “gcPBM binding intensity (ln)” value was 5.98.
“AAATATATGAATAAATGTACGAAATGAATGGATGAA [XGTACX_site7108]”: the “gcPBM binding intensity (ln)” value turned out to be 6.67.
Under “TTAGCTATGATATATACACACCAACGAACGAAGAAA [CACACA_site6657]” stands 6.92.
On to “GTCTATTCAAAAAAGTGTACGGACATATAAACATAC [XGTACX_site6516]”, for which the “gcPBM binding intensity (ln)” value is 6.88.
Consider “TATGGTGTAATTTAGTGTATTATATTATTTTGGTTG [GTGCAC_negctrl_site445]”, for which the “gcPBM binding intensity (ln)” value was determined as 6.75.
In the case of “TGCAGTCTGGAGAAAAGTACATAGTATCTGGTATCT [XGTACX_site2545]”, the “gcPBM binding intensity (ln)” value came to 6.25.
Under “CATTTGATAAGATACACACACAAGGAAAAAAATAAA [CACACA_site350]” stands 7.07; under “TATAATAATATTAACACACGTACAAAAGCAAACAAC [CACACA_site3494]”, 7.56; under “TTATAATATCTATATATCTTTTACATTTATAAGTTT [CACACA_negctrl_site1473]”, 6.25.
Under “TTTTTTTTTTTTTTTGCACACAGGGTGTAGGACAAG [CACACA_site2842]” stands 9.54; under “ATATATATATTCCACACACACACAAAAAAAAAAAAA [CACACA_site3648]”, 7.51.
Regarding “ATAAAATAAGATCTTTTTTTTTTTTTTTTCTTTTCT [XGTACX_negctrl_site73]”, the “gcPBM binding intensity (ln)” value turned out to be 6.03.
Under “AACAAATAAATAAATAAAAAGCAAATATGTCTATAT [GTGCAC_negctrl_site414]” stands 6.57; under “TATAACTTTTTTATTACACACCTATGCAATATTATA [CACACA_site6570]”, 7.04.
Regarding “TACAGATAATATATTGCACACGTCAGAATAATATAG [CACACA_site5036]”, the “gcPBM binding intensity (ln)” value was determined as 9.93.
On to “TGGTTAATATGTGAAAGTACATATTATATTAAAATG [XGTACX_site2636]”, for which the “gcPBM binding intensity (ln)” value was found to be 6.35.
Turning to “AAAAAGAAAAAACTTACACACATATATACAGACATG [CACACA_site550]”, the “gcPBM binding intensity (ln)” value came out at 6.71.
Under “AATATACAATAAAGGTGTACACATATATGATGCAAG [XGTACX_site7607]” stands 7.64.
Under “TTATAATCCATAATTGCACACAATATATTCATATTT [CACACA_site3916]” stands 10.1.
As to “AGATATAGGAAAATAATATATATATATTTTTTTTTT [CACACA_negctrl_site461]”, the “gcPBM binding intensity (ln)” value came out at 6.18.
For “ATATATATATATATATGTACTTATAAGGTATATTTA [XGTACX_site3327]”, the “gcPBM binding intensity (ln)” value is 9.36.
On to “TATATTTATTTATACACATGCATATTTTAAGGGCTC [TGCATGCA_site885]”, for which the “gcPBM binding intensity (ln)” value worked out at 6.76.
Turning to “ATTTATTTATTTATTTGTACATATAAATATATCAAA [XGTACX_site7383]”, the “gcPBM binding intensity (ln)” value was 6.58.
Under “AAAGATGTTATATATATGTATATATATATGTAATAT [TGCATGCA_negctrl_site386]” stands 6.56; under “CATATAATTATATATCGTACATATTAATATAATTAC [XGTACX_site401]”, 6.46; under “AGTATACAGATATATACACACATATATTTATTTATA [CACACA_site6279]”, 6.47.
Consider “TACATTCATGTGTATTGTACAAACTATTTTATAATA [XGTACX_site7744]”, for which the “gcPBM binding intensity (ln)” value worked out at 6.63.
Take “TACATATTTTTTATGTGTACATATTTTTTATGTGTA [XGTACX_site443]”: the “gcPBM binding intensity (ln)” value is 6.23.
Turning to “ACAATCCTAACGACATGTACAAATATATATATTTTT [XGTACX_site7335]”, the “gcPBM binding intensity (ln)” value turned out to be 6.54.
For “GCATATTTTATAATTTTACACACCATATAAAATAAT [CACACA_site8904]”, the “gcPBM binding intensity (ln)” value came out at 6.83.
Under “TATATAATATATATAGTGCATAAGTTCAAAAGAATA [GTGCAC_site9805]” stands 9.15.
For “CCAACATTTTTTAGAAGTACATTTTTATATTTATTA [XGTACX_site5179]”, the “gcPBM binding intensity (ln)” value was determined as 6.15.
Regarding “AAATAAAAACATAACAGTACAGTTAACATTTTTATA [XGTACX_site3479]”, the “gcPBM binding intensity (ln)” value was found to be 6.19.
For the sequence “TATATATATATATATGTACACACATATATACCTTTC [CACACA_site8854]”, the “gcPBM binding intensity (ln)” value was found to be 9.31.
Regarding “TGTAATAATCTTACATGTACATACATATATTATATA [XGTACX_site4012]”, the “gcPBM binding intensity (ln)” value was determined as 6.58.
Turning to “GATGGAAGGTGAAAGCGTACTTATTATAGTAATATA [XGTACX_site303]”, the “gcPBM binding intensity (ln)” value was determined as 6.45.
As to “AGGTACTTTTTTAAAACACACATATAATATATACAC [CACACA_site1065]”, the “gcPBM binding intensity (ln)” value was found to be 6.72.
